# Results published in publication doi:10.1101/2025.08.11.669663 (bioRxiv, 2025).
# T1: catalase (CAT) (human (endogenous in HeLa), UniProt P04040 1-527)
# T1 sequence (looked up): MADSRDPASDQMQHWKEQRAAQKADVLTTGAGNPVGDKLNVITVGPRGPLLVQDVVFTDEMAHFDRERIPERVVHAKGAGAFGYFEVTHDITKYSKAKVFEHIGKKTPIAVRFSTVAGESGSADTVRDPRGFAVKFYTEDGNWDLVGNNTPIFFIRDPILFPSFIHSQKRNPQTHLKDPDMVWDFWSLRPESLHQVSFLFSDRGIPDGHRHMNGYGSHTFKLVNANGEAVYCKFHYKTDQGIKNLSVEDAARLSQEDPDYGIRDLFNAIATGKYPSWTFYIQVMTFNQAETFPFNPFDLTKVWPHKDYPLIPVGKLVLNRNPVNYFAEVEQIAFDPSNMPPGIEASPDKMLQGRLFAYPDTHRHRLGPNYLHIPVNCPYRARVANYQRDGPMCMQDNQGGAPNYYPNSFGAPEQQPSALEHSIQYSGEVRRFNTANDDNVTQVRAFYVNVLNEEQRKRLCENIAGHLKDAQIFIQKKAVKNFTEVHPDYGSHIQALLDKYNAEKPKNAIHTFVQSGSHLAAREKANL
# B1: MCM2 (natural protein)
# chain: not shown
# Biological target: T1, catalase (CAT)
# Experiment: co-IP
binder,measurement,value
B1,"co-precipitated amount after H2O2 treatment, percent of that without H2O2",144%
